# Reference: PubChem BioAssay (NCATS)
# The shares of active, inactive and inconclusive entries below differ from those in the screen. For some of these results: Potencies of inconclusive entries are left out as doubtful fits. Activity calls are given as the source filed them. Calls come from the whole dose curve; as a rule, active = well fitted curve in the direction sought with a large enough effect; inconclusive = small, poorly fitted or top-dose-only effect, or another doubt; inactive = no such curve, though single readings can be large; an effect the other way counts as inactive or inconclusive.
# Assays:
# [1] = qHTS of pediatric cancer cell lines to identify multiple opportunities for drug repurposing: Primary screen for SK-N-MC cells (AID 1347093); details: SK-N-MC viability, CellTiter-Glo luminescence, 48 h; activity change, negative = cytotoxic: at 46 µM (top of the series) unless noted;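 for activity change, negative = cytotoxic: plate controls were DMSO neutral control for no effect and bortezomib for full effect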
# Outline: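 Metabolically active cells were quantified by ATP-dependent luminescence (CellTiter-Glo, 15 min at room temperature) following 48 h treatment. Cells had been plated at 500-1,000 per well and settled for 5 h beforehand.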
# [2] = qHTS of pediatric cancer cell lines to identify multiple opportunities for drug repurposing: Primary screen for Saos-2 cells (AID 1347097); details: Saos-2 viability, CellTiter-Glo ATP luminescence, 48 h; activity change, negative = cytotoxic: at 46 µM (top of the series) unless noted; note: nearly all actives have a fitted effect of over 40% in size; for activity change, negative = cytotoxic: % is set by controls: 0 for no effect and ±100 for the full control effect
# Outline: (§1)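 Following a 5-hour attachment period, cells at 500-1,000/well received compounds and were cultured for 48 hours. CellTiter-Glo was added and luminescence read to estimate viable, metabolically active cells.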
# [3] = qHTS of pediatric cancer cell lines to identify multiple opportunities for drug repurposing: Primary screen for SK-N-SH cells (AID 1347098); details: SK-N-SH viability, CellTiter-Glo luminescence, 48 h; activity change, negative = cytotoxic: at 57 µM (top of the series) unless noted; note: nearly all actives have a fitted effect of over 65% in size;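 for activity change, negative = cytotoxic: DMSO served as neutral control and bortezomib at 2.3 µM as positive control; % is set by controls: 0 for no effect and ±100 for the full control effect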
# Outline: (§2)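 Cells (500-1,000/well) rested 5 h, then received compounds for 48 h; metabolically active cells were measured by CellTiter-Glo luminescence. Final concentrations spanned up to 46 µM (MIPE, 11-point) or 0.59 nM-46 µM (NPC, 8-point) in primary screens, 11-point in follow-ups.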
# [4] = qHTS of pediatric cancer cell lines to identify multiple opportunities for drug repurposing: Primary screen for NB1643 cells (AID 1347099); details: NB1643 neuroblastoma viability, CellTiter-Glo luminescence, 48 h; series mostly up to 46 µM; note: nearly all actives have a fitted effect of over 50% in size;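 for activity change, negative = cytotoxic: plate controls were DMSO neutral control for no effect and bortezomib positive control for full effect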
# Outline: as §1
# [5] = qHTS of pediatric cancer cell lines to identify multiple opportunities for drug repurposing: Primary screen for Rh18 cells (AID 1347102); details: Rh18 rhabdomyosarcoma viability, CellTiter-Glo luminescence, 48 h; series mostly up to 46 µM; note: nearly all actives have a fitted effect of over 65% in size; for activity change, negative = cytotoxic: % is set by controls: 0 for no effect and ±100 for the full control effect
# Outline: (§3)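 Cells (500-1,000/well) in growth media were settled 5 h at 37 degrees C, then given compounds for 48 h. Viability was read as CellTiter-Glo luminescence. Primary runs used MIPE at 11 points (0.78 nM-46 µM) and NPC at 8 points (0.59 nM-46 µM); follow-ups used 11 points.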
# [6] = qHTS of pediatric cancer cell lines to identify multiple opportunities for drug repurposing: Primary screen for BT-12 cells (AID 1347101); details: BT-12 viability, CellTiter-Glo luminescence, 48 h; series mostly up to 57.3 µM; note: nearly all actives have a fitted effect of over 25% in size;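 for activity change, negative = cytotoxic: plate controls were DMSO for no effect and bortezomib positive control for full effect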
# Outline: as §2
# [7] = qHTS of pediatric cancer cell lines to identify multiple opportunities for drug repurposing: Primary screen for LAN-5 cells (AID 1347100); details: LAN-5 neuroblastoma viability, CellTiter-Glo luminescence, 48 h; activity change, negative = cytotoxic: at 46 µM (top of the series) unless noted;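 for activity change, negative = cytotoxic: plate controls were DMSO neutral control for no effect and bortezomib positive control for full effect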
# Outline: as §3
# [8] = qHTS of pediatric cancer cell lines to identify multiple opportunities for drug repurposing: Primary screen for BT-37 cells (AID 1347094); details: BT-37 viability, CellTiter-Glo luminescence, 48 h; series mostly up to 57.3 µM;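 for activity change, negative = cytotoxic: plate controls were DMSO for no effect and bortezomib for full effect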
# Outline: as §1
# [9] = qHTS of pediatric cancer cell lines to identify multiple opportunities for drug repurposing: Primary screen for NB-EBc1 cells (AID 1347095); details: NB-EBc1 neuroblastoma viability, CellTiter-Glo luminescence, 48 h; series mostly up to 46 µM
# Outline: as §1
# Potency is the fitted concentration of half-maximal effect; tags give direction and shape of the fitted curve.
smiles,measurement,setting,value
CNC(C)Cc1ccccc1OC (stereo not drawn),"activity change, negative = cytotoxic",[1],inconclusive: -36.4% [cytotoxic]
same,Potency,[2],"inconclusive [cytotoxic, partial curve, poor fit]"
O=c1oc2ccccc2c(O)c1C(CC(O)c1ccc(-c2ccc(Br)cc2)cc1)c1ccccc1 (stereo not drawn),Potency,[1],"inconclusive [cytotoxic, single point]"
same,Potency,[3],inactive
C[C@]12CC[C@H]3[C@@H](CCC4=CC(=O)CC[C@@H]43)[C@@H]1CC[C@@H]2OC(=O)CCc1ccco1,Potency,[1],inactive
same,Potency,[2],"inconclusive [cytotoxic, partial curve]"
CCC1(CC)C(=O)NC(=O)NC1=O,Potency,[1],"inconclusive [cytotoxic, full curve, poor fit]"
same,Potency,[2],"inconclusive [cytotoxic, partial curve, poor fit]"
same,Potency,[4],inactive
FC(F)(F)c1cccc(C2=CCN(CCc3ccc4ccccc4c3)CC2)c1,Potency,[1],inactive
same,Potency,[2],inactive
same,Potency,[5],inactive
O=c1[nH]c2ccccc2n1CCCN1CCC(n2c(=O)[nH]c3cc(Cl)ccc32)CC1,Potency,[1],"inconclusive [cytotoxic, single point]"
same,Potency,[2],"inconclusive [cytotoxic, single point]"
same,Potency,[4],inactive
same,Potency,[5],"inconclusive [cytotoxic, single point]"
C[C@@H]1CC[C@H]2[C@@H](C)C(=O)O[C@@H]3O[C@@]4(C)CC[C@@H]1[C@]32OO4,Potency,[1],"inconclusive [cytotoxic, partial curve, poor fit]"
same,Potency,[2],"inconclusive [cytotoxic, single point]"
same,Potency,[6],"inconclusive [cytotoxic, partial curve, poor fit]"
O=C1NCN(c2ccccc2)C12CCN(CC1COc3ccccc3O1)CC2 (stereo not drawn),Potency,[1],inactive
same,Potency,[2],"inconclusive [cytotoxic, partial curve, poor fit]"
same,Potency,[3],inactive
CCCN1CCO[C@@H]2c3cc(O)ccc3OC[C@@H]21,Potency,[1],"inconclusive [cytotoxic, single point]"
same,Potency,[2],inactive
same,Potency,[4],"inconclusive [cytotoxic, partial curve, poor fit]"
same,Potency,[7],active: 14.8 µM
same,Potency,[6],"inconclusive [cytotoxic, partial curve]"
CC[C@H](O)C(C[C@H](C)N(C)C)(c1ccccc1)c1ccccc1,Potency,[1],active: 62.3 µM
same,Potency,[2],inactive
same,Potency,[3],"inconclusive [cytotoxic, single point]"
same,Potency,[6],inactive
CN(C)CCc1c[nH]c2ccc(O)cc12,Potency,[1],"inconclusive [cytotoxic, single point]"
same,Potency,[2],inactive
same,Potency,[7],inactive
same,Potency,[5],inactive
C[C@]12CC[C@H]3[C@@H](CCC4=CC(=O)CC[C@@H]43)[C@@H]1CC[C@@H]2OC(=O)CCc1ccccc1,Potency,[1],inactive
same,Potency,[2],"inconclusive [cytotoxic, single point]"
CC(=O)[C@H]1CC[C@H]2[C@@H]3CC[C@H]4C[C@](C)(O)CC[C@]4(C)[C@H]3CC[C@]12C,Potency,[1],inactive
same,Potency,[4],inactive
CC(=O)OCC1=C(C(=O)O)N2C(=O)[C@@H](N)[C@H]2SC1,Potency,[8],inactive
C[C@@H]1CC2=CC(=O)CC[C@@H]2[C@H]2CC[C@@]3(C)[C@@H](CC[C@]3(C)O)[C@@H]21,Potency,[1],inactive
same,Potency,[3],inactive
CC(C)(C)NCC(O)c1cc(Cl)c(N)c(C(F)(F)F)c1 (stereo not drawn),Potency,[1],inactive
same,Potency,[4],inactive
CC(=O)N(C)c1cccc(-c2ccnc3c(C(=O)c4cccs4)cnn23)c1,Potency,[1],inactive
same,Potency,[3],"inconclusive [cytotoxic, single point]"
same,Potency,[4],inactive
same,Potency,[7],inactive
CCc1cc(OC)c(C[C@H](C)N)cc1OC,Potency,[1],"inconclusive [cytotoxic, full curve, poor fit]"
same,Potency,[6],"inconclusive [cytotoxic, full curve, poor fit]"
CCOC(=O)C(c1c(O)c2ccccc2oc1=O)c1c(O)c2ccccc2oc1=O,Potency,[1],"inconclusive [cytotoxic, partial curve, poor fit]"
same,Potency,[3],inactive
same,Potency,[4],inactive
same,Potency,[5],inactive
CC(=CCCC1=CCC(C2=CC(=O)OC2O)OC1O)CCC1=C(C)CCCC1(C)C (stereo not drawn),Potency,[1],"inconclusive [cytotoxic, single point]"
same,Potency,[3],"inconclusive [cytotoxic, single point]"
same,Potency,[5],"inconclusive [cytotoxic, partial curve]"
CN1CCC(N(Cc2ccccc2)c2ccccc2)CC1,Potency,[1],"inconclusive [cytotoxic, full curve, poor fit]"
same,Potency,[3],"inconclusive [cytotoxic, single point]"
same,Potency,[4],inactive
CC[C@H]1C[C@H]2[C@@H]3CCC4=CC(=O)CC[C@@H]4[C@H]3CC[C@]2(C)[C@H]1O,Potency,[1],"inconclusive [cytotoxic, single point]"
same,Potency,[3],"inconclusive [cytotoxic, single point]"
same,Potency,[6],"inconclusive [cytotoxic, single point]"
Clc1ccccc1N1CCNCC1,Potency,[1],inactive
same,Potency,[5],inactive
CN1C(=O)[C@@H](NC(=O)c2cc3ccccc3[nH]2)N=C(c2ccccc2)c2ccccc21,Potency,[1],"inconclusive [cytotoxic, full curve, poor fit]"
same,Potency,[7],"inconclusive [cytotoxic, single point]"
CCCC[N+]1(C)[C@@H]2CC(OC(=O)[C@H](CO)c3ccccc3)C[C@H]1[C@@H]1O[C@@H]12 (stereo partly drawn),Potency,[8],inactive
OC(O)C(Cl)(Cl)Cl,Potency,[1],inactive
same,Potency,[3],inactive
CCOC(C(=O)OCCN(C)C)(c1ccccc1)c1ccccc1,Potency,[1],"inconclusive [cytotoxic, single point]"
same,Potency,[4],inactive
COc1cc2cc(c1Cl)N(C)C(=O)C[C@H](OC(=O)C(C)C)[C@]1(C)O[C@H]1[C@H](C)[C@@H]1C[C@@](O)(NC(=O)O1)[C@H](OC)C=CC=C(C)C2,Potency,[1],active: 0.001 µM
same,Potency,[4],"inconclusive [cytotoxic, partial curve, poor fit]"
CCC(=O)O[C@H]1CC[C@H]2[C@@H]3CCC4=CC(=O)CC[C@]4(C)[C@H]3CC[C@]12C,Potency,[1],"inconclusive [cytotoxic, single point]"
same,Potency,[3],"inconclusive [cytotoxic, single point]"
same,Potency,[4],inactive
same,Potency,[7],"inconclusive [cytotoxic, single point]"
same,Potency,[6],inactive
c1ccc(N2CCNCC2)cc1,Potency,[1],"inconclusive [cytotoxic, full curve, poor fit]"
same,Potency,[7],inactive
NP(N)(=O)NC(=O)c1ccc(F)cc1,Potency,[8],inactive
O=c1oc2ccccc2c(O)c1Cc1c(O)c2ccccc2oc1=O,Potency,[1],active: 15 µM
same,Potency,[5],inactive
COP(=S)(OC)Oc1ccc(S(=O)(=O)N(C)C)cc1,Potency,[1],inactive
same,Potency,[7],inactive
C[C@]12CC[C@H]3[C@@H](CCC4=CC(=O)CC[C@@]43C)[C@H]1CC[C@H]2O,Potency,[8],"inconclusive [cytotoxic, partial curve, poor fit]"
CC[N+]1(CCOC(=O)C(O)(c2ccccc2)c2ccccc2)CCCCC1,Potency,[1],inactive
same,Potency,[5],inactive
CC[C@@H](CO)NC(=O)[C@@H]1C=C2c3cccc4[nH]cc(c34)C[C@H]2N(C)C1,Potency,[1],inactive
same,Potency,[7],inactive
O=C1OC(CCN2CCCCC2)OC1(c1ccccc1)c1ccccc1 (stereo not drawn),Potency,[1],"inconclusive [cytotoxic, partial curve, poor fit]"
same,Potency,[3],"inconclusive [cytotoxic, single point]"
same,Potency,[4],"inconclusive [cytotoxic, single point]"
same,Potency,[7],active: 4.73 µM
O=C(O)Cc1ccccc1,Potency,[1],"inconclusive [cytotoxic, partial curve, poor fit]"
same,Potency,[4],inactive
same,Potency,[7],inactive
CC(Cc1ccc(O)cc1)NCC(O)c1cc(O)cc(O)c1 (stereo not drawn),Potency,[1],inactive
same,Potency,[4],inactive
CCN(Cc1ccc(Cl)nc1)/C(=C/[N+](=O)[O-])NC,Potency,[1],inactive
same,Potency,[5],inactive
O=C(O)C(Cl)Cl,Potency,[1],inactive
same,Potency,[7],inactive
O=C(CCCN1CCC(n2c(=O)[nH]c3ccccc32)CC1)c1ccc(F)cc1,Potency,[1],inactive
same,Potency,[6],"inconclusive [cytotoxic, partial curve, poor fit]"
CCN(CC)CCc1c[nH]c2ccccc12,Potency,[1],inactive
same,Potency,[7],inactive
same,Potency,[6],inactive
CCN(C(C)=O)c1cccc(-c2ccnc3c(C#N)cnn23)c1,Potency,[1],inactive
same,Potency,[6],inactive
same,Potency,[5],inactive
CN1C(=S)CN=C(c2ccccc2)c2cc(Cl)ccc21,Potency,[1],inactive
same,Potency,[3],inactive
C[C@H]1C(=O)O[C@@H]2CCN3CC=C(COC(=O)[C@](C)(O)[C@]1(C)O)[C@H]23,"activity change, negative = cytotoxic",[1],inconclusive: -36.2% [cytotoxic]
same,Potency,[3],inactive
same,Potency,[7],"inconclusive [cytotoxic, single point]"
CN[C@@H]1Cc2cccc3[nH]c(=O)n(c23)C1,Potency,[1],inactive
same,Potency,[3],inactive
CC1N=C(N)OC1c1ccccc1 (stereo not drawn),Potency,[1],inactive
same,Potency,[4],"inconclusive [cytotoxic, single point]"
COc1cc(CCN)cc(OC)c1OC,Potency,[1],inactive
same,Potency,[3],"inconclusive [cytotoxic, single point]"
CCOC(=O)Nc1ccc(NCc2ccc(F)cc2)cc1N,Potency,[1],"inconclusive [cytotoxic, single point]"
same,Potency,[4],"inconclusive [cytotoxic, single point]"
same,Potency,[7],"inconclusive [cytotoxic, single point]"
same,Potency,[6],inactive
CN1C(=O)CN=C(c2ccccc2)c2cc([N+](=O)[O-])ccc21,Potency,[1],"inconclusive [cytotoxic, single point]"
same,Potency,[5],inactive
Cc1[nH]nc2ccc(-c3cncc(OC[C@@H](N)Cc4c[nH]c5ccccc45)c3)cc12,Potency,[8],active: 1.53 µM
same,Potency,[9],active: 1.66 µM
same,Potency,[2],"inconclusive [cytotoxic, full curve, poor fit]"
same,Potency,[4],"inconclusive [cytotoxic, full curve, poor fit]"
